# Measurements: article PMC12820563, “FoxP3 forms a head-to-head dimer in vivo and stabilizes its multimerization on adjacent microsatellites”
# Some of the results follow.
# Target: T1, MBP-FoxP1dN (Mus musculus, UniProt P58462 326-579)
# T1 sequence: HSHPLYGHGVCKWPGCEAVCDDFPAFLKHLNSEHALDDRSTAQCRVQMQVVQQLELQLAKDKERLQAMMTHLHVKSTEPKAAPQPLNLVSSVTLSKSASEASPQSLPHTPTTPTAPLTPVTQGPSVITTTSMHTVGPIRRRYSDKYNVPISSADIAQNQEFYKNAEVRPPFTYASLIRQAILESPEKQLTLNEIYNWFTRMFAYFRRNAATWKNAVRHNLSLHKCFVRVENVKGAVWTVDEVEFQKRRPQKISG
# Test: PD-seq (MBP pull-down with sequencing); 20 mM Tris-HCl pH 7.5, 100 mM NaCl, 1.5 mM MgCl2, 0.4 uM protein, 0.1 uM dsDNA library, 30 min, room temperature, amylose pull-down; high values mean tight binding
# Settings: protein: recombinant; tags: His6-MBP; chain copies: 2; dsDNA, one strand shown
# Outline: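 A fragment of mouse FoxP3 or FoxP1 without its N-terminus, carrying a His6-MBP tag and produced in E. coli, was combined at 0.4 µM with a 0.1 µM degenerate double-stranded DNA library filled in with Klenow. The mixture sat for 30 min at room temperature in Tris pH 7.5 buffer containing NaCl and MgCl2. Protein–DNA complexes were captured on amylose resin, washed three times, and the DNA was freed with proteinase K, barcoded by PCR and sequenced on Illumina. Binding is expressed as reads-per-million enrichment of pull-down over input, with replicates pooled.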
row,Sequence,binding signal
1,GATGATTGTTCTCCCAGCTGATGAATTCTTTGCCTCGAGTAAACAAATTTTCCTAATCTTTCTGTTCAAGCGCCATCTAC,0.869 RPM ratio (pull-down/input)
2,GATGATTGTTCTCCCAGCTGATGAATTTTCTGGATCGAGTAAACAAATTTTCCTAATCTTTCTGTTCAAGCGCCATCTAC,0.821 RPM ratio (pull-down/input)
3,GATGATTGTTCTCCCAGCTGATGAATTCGGGCCCTCGAGTAAACAAATTTTCCTAATCTTTCTGTTCAAGCGCCATCTAC,0.699 RPM ratio (pull-down/input)
4,GATGATTGTTCTCCCAGCTGATGAATTTCTTTTCTCGAGTAAACAAATTTTCCTAATCTTTCTGTTCAAGCGCCATCTAC,0.848 RPM ratio (pull-down/input)
5,GATGATTGTTCTCCCAGCTGATGAATTGCGGGTCTCGAGTAAACAAATTTTCCTAATCTTTCTGTTCAAGCGCCATCTAC,0.953 RPM ratio (pull-down/input)
6,GATGATTGTTCTCCCAGCTGATGAATTGGTTGGTTCGAGTAAACAAATTTTCCTAATCTTTCTGTTCAAGCGCCATCTAC,1 RPM ratio (pull-down/input)
7,GATGATTGTTCTCCCAGCTGATGAATTAGCGGCATCGAGTAAACAAATTTTCCTAATCTTTCTGTTCAAGCGCCATCTAC,0.992 RPM ratio (pull-down/input)
8,GATGATTGTTCTCCCAGCTGATGAATTAACCGGGTCGAGTAAACAAATTTTCCTAATCTTTCTGTTCAAGCGCCATCTAC,0.808 RPM ratio (pull-down/input)
9,GATGATTGTTCTCCCAGCTGATGAATTTTGGCTTTCGAGTAAACAAATTTTCCTAATCTTTCTGTTCAAGCGCCATCTAC,1 RPM ratio (pull-down/input)
10,GATGATTGTTCTCCCAGCTGATGAATTGGTGCCGTCGAGTAAACAAATTTTCCTAATCTTTCTGTTCAAGCGCCATCTAC,0.905 RPM ratio (pull-down/input)
11,GATGATTGTTCTCCCAGCTGATGAATTAGTATGTTCGAGTAAACAAATTTTCCTAATCTTTCTGTTCAAGCGCCATCTAC,1.19 RPM ratio (pull-down/input)
12,GATGATTGTTCTCCCAGCTGATGAATTCGCCCAATCGAGTAAACAAATTTTCCTAATCTTTCTGTTCAAGCGCCATCTAC,0.951 RPM ratio (pull-down/input)
13,GATGATTGTTCTCCCAGCTGATGAATTTCATTCTTCGAGTAAACAAATTTTCCTAATCTTTCTGTTCAAGCGCCATCTAC,0.823 RPM ratio (pull-down/input)
14,GATGATTGTTCTCCCAGCTGATGAATTCGGAAATTCGAGTAAACAAATTTTCCTAATCTTTCTGTTCAAGCGCCATCTAC,0.869 RPM ratio (pull-down/input)
15,GATGATTGTTCTCCCAGCTGATGAATTTCTTTCCTCGAGTAAACAAATTTTCCTAATCTTTCTGTTCAAGCGCCATCTAC,0.824 RPM ratio (pull-down/input)
16,GATGATTGTTCTCCCAGCTGATGAATTAGCGCTGTCGAGTAAACAAATTTTCCTAATCTTTCTGTTCAAGCGCCATCTAC,0.866 RPM ratio (pull-down/input)

row,Sequence,binding signal
1,GATGATTGTTCTCCCAGCTGATGAATTCTCACCCTCGAGTAAACAAATTTTCCTAATCTTTCTGTTCAAGCGCCATCTAC,0.781 RPM ratio (pull-down/input)
2,GATGATTGTTCTCCCAGCTGATGAATTGTAAGTATCGAGTAAACAAATTTTCCTAATCTTTCTGTTCAAGCGCCATCTAC,1.24 RPM ratio (pull-down/input)
3,GATGATTGTTCTCCCAGCTGATGAATTTTAAGCCTCGAGTAAACAAATTTTCCTAATCTTTCTGTTCAAGCGCCATCTAC,0.766 RPM ratio (pull-down/input)
4,GATGATTGTTCTCCCAGCTGATGAATTAAACCTATCGAGTAAACAAATTTTCCTAATCTTTCTGTTCAAGCGCCATCTAC,0.943 RPM ratio (pull-down/input)
5,GATGATTGTTCTCCCAGCTGATGAATTCTGTAACTCGAGTAAACAAATTTTCCTAATCTTTCTGTTCAAGCGCCATCTAC,0.979 RPM ratio (pull-down/input)
6,GATGATTGTTCTCCCAGCTGATGAATTTCCACCATCGAGTAAACAAATTTTCCTAATCTTTCTGTTCAAGCGCCATCTAC,0.912 RPM ratio (pull-down/input)
7,GATGATTGTTCTCCCAGCTGATGAATTGGCTACATCGAGTAAACAAATTTTCCTAATCTTTCTGTTCAAGCGCCATCTAC,0.93 RPM ratio (pull-down/input)
8,GATGATTGTTCTCCCAGCTGATGAATTCCTGGATTCGAGTAAACAAATTTTCCTAATCTTTCTGTTCAAGCGCCATCTAC,0.881 RPM ratio (pull-down/input)
9,GATGATTGTTCTCCCAGCTGATGAATTGATTTCCTCGAGTAAACAAATTTTCCTAATCTTTCTGTTCAAGCGCCATCTAC,1.17 RPM ratio (pull-down/input)
10,GATGATTGTTCTCCCAGCTGATGAATTTGCTATATCGAGTAAACAAATTTTCCTAATCTTTCTGTTCAAGCGCCATCTAC,1.07 RPM ratio (pull-down/input)
11,GATGATTGTTCTCCCAGCTGATGAATTTATAACCTCGAGTAAACAAATTTTCCTAATCTTTCTGTTCAAGCGCCATCTAC,1.05 RPM ratio (pull-down/input)
12,GATGATTGTTCTCCCAGCTGATGAATTGAAAACCTCGAGTAAACAAATTTTCCTAATCTTTCTGTTCAAGCGCCATCTAC,0.844 RPM ratio (pull-down/input)
13,GATGATTGTTCTCCCAGCTGATGAATTGAGTCTTTCGAGTAAACAAATTTTCCTAATCTTTCTGTTCAAGCGCCATCTAC,0.938 RPM ratio (pull-down/input)
14,GATGATTGTTCTCCCAGCTGATGAATTCAACTAGTCGAGTAAACAAATTTTCCTAATCTTTCTGTTCAAGCGCCATCTAC,0.877 RPM ratio (pull-down/input)
15,GATGATTGTTCTCCCAGCTGATGAATTAGTCCGATCGAGTAAACAAATTTTCCTAATCTTTCTGTTCAAGCGCCATCTAC,0.851 RPM ratio (pull-down/input)
16,GATGATTGTTCTCCCAGCTGATGAATTCGTTTTTTCGAGTAAACAAATTTTCCTAATCTTTCTGTTCAAGCGCCATCTAC,0.928 RPM ratio (pull-down/input)
